Experimental data published in PMC5522446, “The N-terminal dimerization is required for TDP-43 splicing activity” (Scientific Reports, 2017).

Target: the molecule itself
Test: SEC; protein at 50 µM; Superdex-200 Increase 10/300 GL; Buffer A (25 mM Tris-HCl, pH 8.0, 150 mM NaCl); room temperature; apparent MW from standard proteins

B1: TDP([…]) (domain or fragment)
chain: not shown
notes: Cloned into pET22b by Nde I/Xho I; this vector would add a C-terminal His6 (surmised); Printed theoretical MW 30.7 kDa; source: E. coli BL21 (DE3), purified (Ni2+-NTA, SEC)
stoichiometry N: 2.2
